Residue numbers refer to the chain shown, from its start. These are yes or no findings as the source states them, for the method shown. In cells and extracts the contact can be indirect. Some binding calls cover weakened binding; strength is not graded here. Tags and fused reporters may be left off the sequences shown.

Protein sequences, listed by entry. Tags and fused reporters are not part of them.
UniProt Q8K1M6: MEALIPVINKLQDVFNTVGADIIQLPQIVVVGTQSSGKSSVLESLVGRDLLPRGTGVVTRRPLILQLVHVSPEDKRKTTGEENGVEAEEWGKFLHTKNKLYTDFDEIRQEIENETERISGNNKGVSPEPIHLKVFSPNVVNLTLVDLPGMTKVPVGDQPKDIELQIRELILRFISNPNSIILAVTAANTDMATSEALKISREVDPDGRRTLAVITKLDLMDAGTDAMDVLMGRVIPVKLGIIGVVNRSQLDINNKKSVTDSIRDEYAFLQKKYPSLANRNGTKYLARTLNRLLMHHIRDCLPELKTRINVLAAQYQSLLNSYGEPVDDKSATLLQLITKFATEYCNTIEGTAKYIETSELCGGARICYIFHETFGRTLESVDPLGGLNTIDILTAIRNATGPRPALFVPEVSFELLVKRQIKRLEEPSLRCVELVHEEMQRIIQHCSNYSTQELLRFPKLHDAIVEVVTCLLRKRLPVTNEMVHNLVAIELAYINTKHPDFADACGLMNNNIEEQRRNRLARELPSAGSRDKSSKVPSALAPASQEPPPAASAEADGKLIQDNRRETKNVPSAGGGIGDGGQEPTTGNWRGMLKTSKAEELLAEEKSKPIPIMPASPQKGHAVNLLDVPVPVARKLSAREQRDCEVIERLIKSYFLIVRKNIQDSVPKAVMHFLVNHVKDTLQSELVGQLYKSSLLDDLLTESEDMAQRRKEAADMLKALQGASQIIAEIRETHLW
UniProt P30153: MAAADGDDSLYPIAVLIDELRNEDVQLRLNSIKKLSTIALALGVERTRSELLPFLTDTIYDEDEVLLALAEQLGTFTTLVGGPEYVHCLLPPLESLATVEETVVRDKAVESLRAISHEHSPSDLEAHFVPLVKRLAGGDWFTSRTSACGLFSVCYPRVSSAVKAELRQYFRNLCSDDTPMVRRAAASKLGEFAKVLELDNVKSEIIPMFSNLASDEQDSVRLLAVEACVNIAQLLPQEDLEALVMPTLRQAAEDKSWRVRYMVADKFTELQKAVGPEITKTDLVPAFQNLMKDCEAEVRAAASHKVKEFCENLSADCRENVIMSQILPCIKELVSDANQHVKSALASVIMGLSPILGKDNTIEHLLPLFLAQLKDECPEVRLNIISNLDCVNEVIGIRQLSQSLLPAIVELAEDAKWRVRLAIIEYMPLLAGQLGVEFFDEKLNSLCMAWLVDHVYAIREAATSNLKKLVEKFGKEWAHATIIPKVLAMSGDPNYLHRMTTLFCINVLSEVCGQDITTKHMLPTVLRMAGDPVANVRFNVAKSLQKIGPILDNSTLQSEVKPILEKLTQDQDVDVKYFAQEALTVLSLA
UniProt Q96KP1: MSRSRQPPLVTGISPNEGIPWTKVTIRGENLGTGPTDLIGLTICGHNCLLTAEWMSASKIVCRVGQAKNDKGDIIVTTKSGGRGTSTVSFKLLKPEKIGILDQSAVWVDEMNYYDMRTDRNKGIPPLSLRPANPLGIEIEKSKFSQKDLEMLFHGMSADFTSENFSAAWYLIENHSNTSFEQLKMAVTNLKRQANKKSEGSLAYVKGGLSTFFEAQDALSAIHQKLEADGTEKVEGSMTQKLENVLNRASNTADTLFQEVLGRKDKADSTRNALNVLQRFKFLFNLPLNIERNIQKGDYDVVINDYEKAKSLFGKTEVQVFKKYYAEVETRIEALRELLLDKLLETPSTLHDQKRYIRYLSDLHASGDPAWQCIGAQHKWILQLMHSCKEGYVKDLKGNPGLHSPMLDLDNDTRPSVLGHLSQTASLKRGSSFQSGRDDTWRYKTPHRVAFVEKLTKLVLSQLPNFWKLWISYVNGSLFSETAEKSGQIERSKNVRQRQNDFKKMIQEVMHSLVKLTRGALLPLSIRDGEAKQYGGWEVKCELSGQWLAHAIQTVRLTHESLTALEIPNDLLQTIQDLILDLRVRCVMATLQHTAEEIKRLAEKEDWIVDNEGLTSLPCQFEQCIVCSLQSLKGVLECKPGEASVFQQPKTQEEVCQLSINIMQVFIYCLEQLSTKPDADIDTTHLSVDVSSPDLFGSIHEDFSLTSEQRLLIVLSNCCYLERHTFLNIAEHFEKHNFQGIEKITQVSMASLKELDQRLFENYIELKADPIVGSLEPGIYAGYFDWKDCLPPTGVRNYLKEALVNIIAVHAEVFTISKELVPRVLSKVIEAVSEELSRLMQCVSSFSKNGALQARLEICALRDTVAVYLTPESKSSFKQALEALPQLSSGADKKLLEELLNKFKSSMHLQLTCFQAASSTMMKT

Among the data in publication PMC10312969 are binding values, retold here.

Experiment [1] deals with T1, Flag-RalA^WT (UniProt P11233).
T1 sequence: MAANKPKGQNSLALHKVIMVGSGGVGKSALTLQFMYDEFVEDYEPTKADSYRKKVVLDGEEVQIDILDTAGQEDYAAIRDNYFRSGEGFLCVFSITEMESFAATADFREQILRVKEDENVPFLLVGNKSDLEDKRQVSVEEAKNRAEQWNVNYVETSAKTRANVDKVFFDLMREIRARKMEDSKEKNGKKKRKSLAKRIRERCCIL
As to the kind of experiment: co-IP; co-transfected HEK293T cells; ANTI-FLAG M2 affinity gel, 4°C overnight; lysis buffer (25 mM Tris-HCl, 130 mM NaCl, 10 mM MgCl2, 10% glycerol, 0.5% NP-40) or Drp1 buffer (25 mM Tris, 50 mM NaCl, 0.5 mM MgCl2, 10% glycerol, 0.5% NP-40).

In experiment [2] the target is T1, Flag-RalA^WT. As to the kind of experiment: pull-down; Flag-RalA^WT on ANTI-FLAG M2 beads loaded with 2 mM GTPγS (1 hr, 25°C), then incubated with GFP-PP2Aa HEK293T lysate; only the target purified.
Experiment [3] concerns the target T1, Flag-RalA^WT. As to the kind of experiment: pull-down; Flag-RalA^WT on ANTI-FLAG M2 beads loaded with 200 μM GDP (1 hr, 25°C), then incubated with GFP-PP2Aa HEK293T lysate; only the target purified.
Experiment [4] addresses T1, Flag-RalA^WT. As to the kind of experiment: pull-down; Flag-RalA^WT held on ANTI-FLAG M2 affinity gel and washed, incubated with GFP-PP2Aa HEK293T lysate at 4°C overnight; lysis buffer 25 mM Tris-HCl, 130 mM NaCl, 10 mM MgCl2, 10% glycerol, 0.5% NP-40; only the target purified.
The target in experiment [5] is T2, RalA^G23V (constitutively active mutant), Flag-tagged (UniProt P11233).
T2 sequence: T1 sequence with G23V
Briefly: co-IP; co-transfected HEK293T cells; ANTI-FLAG M2 affinity gel, 4°C overnight; lysis buffer (25 mM Tris-HCl, 130 mM NaCl, 10 mM MgCl2, 10% glycerol, 0.5% NP-40) or Drp1 buffer (25 mM Tris, 50 mM NaCl, 0.5 mM MgCl2, 10% glycerol, 0.5% NP-40).

Experiment [6] addresses T3, RalA^S28N (dominant negative mutant), Flag-tagged (UniProt P11233).
T3 sequence: T1 sequence with S28N
The description is as above.

In the case of Drp1 (from UniProt Q8K1M6 1-736), in the experiment with Flag-RalA^WT [1], the binding entry is reported as “binds”.

Turning to “GFP-PP2Aa (protein phosphatase 2A subunit A alpha) (from UniProt P30153 1-589)”, the binding entry with Flag-RalA^WT [2] is on record as “binds”; with Flag-RalA^WT [3], “no binding (condition: RalA loaded with 200 μM GDP)”; in the experiment with Flag-RalA^WT [4] it was “binds”.

In the case of “PP2Aa co-expressed in HEK293T cells (tag not told) (from UniProt P30153 1-589)”, the binding entry in experiment [5] is given as “binds”.

With Sec5 (from UniProt Q96KP1 1-924), the binding entry was “binds” in experiment [5] and “no binding” in experiment [6].
